Out of some 48,000 compounds screened, about 450 (0.94%) were called active. About 19% were inconclusive and are not listed. Calls come from the whole dose curve; as a rule, active = well fitted inhibition curve with a large enough effect; inconclusive = small, poorly fitted or top-dose-only effect; inactive = no such curve, though single readings can be large or run the other way. The list shows a part of the results.
assay: Primary qHTS for Identification of Small Molecule Inhibitors of Huntingtin Promoter Activity; conditions: HEK293 HTT promoter firefly luciferase reporter (activity 0% = vehicle and -100% = no light), 24 h; series mostly up to 57.5 µM; activity change, negative = inhibition: at the top concentration; note: nearly all actives have a fitted effect of over 50% in size
Method in brief: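 HEK293 luciferase promoter-reporter cells (2,500/well) plated 24 h, then compounds added at up to 57.5 uM final for 24 h at 37 °C. Firefly luminescence by Dual-Glo, normalized to vehicle (0%) and zero RLU (-100%).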

Activity change, negative = inhibition, inactive:
O=C(c1cccc([N+](=O)[O-])c1)N1CCN(c2ccc(Nc3ccccc3)nn2)CC1 -23.9%
CC[N+](CC)(CC)CCOC(=O)C(C1CCCC1)C1CCCC1 -3.64%
CCn1nc(C)c2c(-c3ccccc3)cc(=O)n(C(C)C(=O)NCCc3ccc(Cl)cc3)c21 (configuration not stated) -19.9%
CCOc1ccc(NC(=O)CCCn2c(C)c3cnn(-c4ccccc4)c(=O)c3c2C)cc1 -15.3%
CCOc1cccc(CNCCCSc2nnnn2C)c1 -15%
COc1ccc(OC)c(NC(=O)CSC2=Nc3ccccc3C3=NC(CC(=O)NCCc4ccccc4)C(=O)N23)c1 (configuration not stated) 0%
COc1cc(OC)c(NC(=O)Cn2ncn3c(cc4cc(C)ccc43)c2=O)cc1Cl 2.52%
Cc1cccc(NC(=O)CSC2=Nc3ccccc3C3=NC(CCC(=O)NCc4ccco4)C(=O)N23)c1 (configuration not stated) -6.23%
Cn1cc(C=C2C(=O)Nc3cccnc32)c2ccccc21 35.1%
COC(=O)c1sccc1S(=O)(=O)N(CC(=O)Nc1cccc(C)c1C)c1ccc(C)c(C)c1 -29.5%
CC(C)CN(CCNC(=O)CCN1N=C(c2ccccc2)CCC1=O)CC(C)C 2.28%
COc1ccc2c(c1)c1c(c(=O)n(CCc3ccccc3)c(=O)n1Cc1cccc(F)c1)n2C -10.2%
CCSc1nc2ccccc2c(OCc2ccc(Cl)cc2)c1C(=O)OC -17.1%
Cc1ccc(-c2onc(C)c2C)cc1S(=O)(=O)Nc1ccccn1 6.47%
CCc1ccccc1NC(=O)c1ccc2c(c1)CCCN2S(C)(=O)=O 1.08%
COc1ccc(Cn2c(CO)cnc2SCc2ccc(C)cc2)cc1 63.5%
COc1ccc(CCNC(=O)CN(c2ccccc2)S(=O)(=O)N(C)C)cc1OC -21.4%
CC(=O)N1CCC(N(CCCOC(C)C)C(=O)Nc2ccc(C)c(C)c2)CC1 -17.7%
CCc1cccc(C)c1NC(=O)CSc1nc2ccccc2nc1Cc1ccccc1 -2.92%
Cc1ccc(NC(=O)c2oc3ccc(S(=O)(=O)N4CCC5(CC4)OCCO5)cc3c2C)cc1Cl -12.2%
COc1ccc(-c2nc3cc(NC(=O)COc4ccccc4C)ccc3o2)cc1 -1.03%
CCc1c(C)sc2c1CCN(Cc1ccc(C#N)cc1)C2c1ccccc1 (configuration not stated) -18.8%
O=C(CN1C(=O)CCSc2ccc(S(=O)(=O)N3CCCC3)cc21)Nc1cccc(F)c1 -25.4%
CCOC(=O)C(C)NC(=O)c1c2c(nc3ccccc13)C(=O)N(C1CCCCC1)C2 (configuration not stated) -5.57%
COC(=O)CC1Oc2ccccc2-n2cc(-c3ccc(F)cc3)nc21 (configuration not stated) -25.3%
COc1cc(C(c2c(C)[nH][nH]c2=O)c2c(C)[nH][nH]c2=O)ccc1OC(=O)c1ccccc1OC 6.29%
Cc1ccc(Cl)cc1-n1nnc(-c2nc(-c3ccc4c(c3)OCO4)no2)c1C 22.8%
COc1ccc(Nc2nn3c(=O)c4cc5c(cc4nc3s2)OCO5)c(OC)c1 -15.2%
CCOc1ccc(/C=C/C(=O)Nc2ccc3nc(N(CC)CC)cc(C)c3c2)cc1OC -21.8%
CCC(=O)N1c2ccc(S(=O)(=O)CCC(=O)Nc3ccc(OC)cc3OC)cc2CC1C (configuration not stated) -4.29%
CCN1CCN(c2ncc3c(n2)CCN(Cc2ccccc2C)C3)CC1 -11.3%
CCc1ccc(-n2nc(CO)c(C(=O)NC)n2)cc1 52.5%
COc1ccc(-c2nc(CS(=O)CC(=O)NCCc3ccc(Cl)cc3)c(C)o2)cc1OC (configuration not stated) -16.9%
COc1cc(CN(C(=O)c2ccccc2F)C2CCS(=O)(=O)C2)cc(OC)c1OC (configuration not stated) -15.6%
CCCS(=O)(=O)N1CC(=O)N(c2ccc(C)c(Cl)c2)C(C)(C(=O)NC2CCCCCC2)C1 (configuration not stated) -5.75%
Oc1c(C(c2ccc(F)cc2)N2CCN(Cc3ccccc3)CC2)sc2nc(-c3ccco3)nn12 (configuration not stated) -0.119%
CN1C(=O)C2(c3ccccc31)N(c1cccc(C(F)(F)F)c1)C(=O)CS2(=O)=O (configuration not stated) -24.2%
COc1ccc(NC(=O)C2CCCN(S(=O)(=O)c3c(C)[nH]c(=O)[nH]c3=O)C2)c(OC)c1 (configuration not stated) 22.6%
O=C(NCc1ccc(F)cc1)C(=O)NCC(c1ccc2c(c1)OCO2)N1CCOCC1 (configuration not stated) -2.5%
Cc1cccc(-c2nc3nc(C)cc(NC(C)c4ccccc4)n3n2)c1 (configuration not stated) -8.4%
COc1ccc(C(=O)N(Cc2ccco2)Cc2ccc(C)o2)cc1 -3.93%
COc1cc(NS(=O)(=O)c2ccc(NC(=O)c3ccc(Cl)cc3Cl)cc2)nc(OC)n1 -0.423%
CNC(=O)c1c(NC(=O)/C=C/c2ccccc2)sc2c1CCC2 -1.41%
Cc1ccc2nc(-c3ccc(NC(=O)COc4ccc(Br)cc4Br)cc3)sc2c1 -27.2%
CCOc1ccc(NC(=O)Cn2nnc(-c3nc(-c4ccncc4)no3)c2N)cc1 4.02%
Cc1ccccc1NC(=O)/C(C#N)=C/c1ccc(Cl)cc1Cl -9.87%
CCc1ccc(NCc2cc3cc4c(cc3n(CC(=O)Nc3ccccc3C)c2=O)OCCO4)cc1 -15.9%
Cc1nn2c(C)c(C(=O)NCCc3ccccc3)cnc2c1-c1ccccc1 10.6%
CCOC(=O)c1ccc(NC(=O)CC(=O)Nc2ccc3nc4n(c(=O)c3c2)CCCCC4)cc1 -6.48%
CC(C)c1ccc(N(CC(=O)O)S(=O)(=O)c2ccc3[nH]c(=O)c(=O)[nH]c3c2)cc1 -0.149%
Cc1ccc2oc(C(=O)Nc3ccc(S(=O)(=O)Nc4nccc(C)n4)cc3)cc(=O)c2c1 -1.46%
COc1ccc(Br)cc1CNC(=O)CN1C(=O)c2cccnc2Oc2ccc(C)cc21 -7.16%
Cc1ccc2ncc3c(-c4ccc(F)cc4)nn(CC(=O)Nc4ccccc4C)c3c2c1 1.22%
CCCCCCCN(CC)CCCC(O)c1ccc(NS(C)(=O)=O)cc1 (configuration not stated) 2.94%
Cc1ccc(S(=O)(=O)Cc2nc(-c3ccc(C(=O)NCCCOC(C)C)cc3)oc2C)cc1 -18.7%
CSc1ccc(CCNC(=O)CCCn2c(=O)c3cccn3c3ccccc32)cc1 -23.3%
CCOc1ccc(C(=O)Nc2cc3c(cc2N2CCCC2)n(C)c(=O)c(=O)n3C)cc1OCC 0.165%
CSc1ncc2c(n1)-c1ccccc1N(Cc1ccccc1)S2(=O)=O -21.1%
Cc1ccc2[nH]c3c(=O)n(CC(=O)Nc4ccc(Br)cc4C)ncc3c2c1 -1.6%
Fc1ccc(Nc2nc3ccccc3n3cnnc23)c(F)c1 5.08%
CCSc1nc2ccccc2c(OCc2ccccc2Cl)c1C(=O)OC -17.2%
COc1ccc(Oc2nc3c(c(=O)n(Cc4ccc(Br)cc4)c(=O)n3C)n2C)cc1 2.76%
